The values that follow come from article PMC4336329 (PLoS ONE, 2015).

In all, about 310,000 compounds went through this assay and about 14,000 (4.5%) showed an effect of 50% or more. Effects have a minus sign here. The list shows a part of the results.
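Further: peak tail current of the secondary pulse compared with the same well before compound.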

The target of this experiment is human ether-à-go-go-related gene (hERG) potassium channel (human, UniProt Q12809). The experiment can be described thus: primary screen, population patch clamp on CHO cells stably expressing hERG.
Sequence of human ether-à-go-go-related gene (hERG) potassium channel (Q12809 whole entry, looked up): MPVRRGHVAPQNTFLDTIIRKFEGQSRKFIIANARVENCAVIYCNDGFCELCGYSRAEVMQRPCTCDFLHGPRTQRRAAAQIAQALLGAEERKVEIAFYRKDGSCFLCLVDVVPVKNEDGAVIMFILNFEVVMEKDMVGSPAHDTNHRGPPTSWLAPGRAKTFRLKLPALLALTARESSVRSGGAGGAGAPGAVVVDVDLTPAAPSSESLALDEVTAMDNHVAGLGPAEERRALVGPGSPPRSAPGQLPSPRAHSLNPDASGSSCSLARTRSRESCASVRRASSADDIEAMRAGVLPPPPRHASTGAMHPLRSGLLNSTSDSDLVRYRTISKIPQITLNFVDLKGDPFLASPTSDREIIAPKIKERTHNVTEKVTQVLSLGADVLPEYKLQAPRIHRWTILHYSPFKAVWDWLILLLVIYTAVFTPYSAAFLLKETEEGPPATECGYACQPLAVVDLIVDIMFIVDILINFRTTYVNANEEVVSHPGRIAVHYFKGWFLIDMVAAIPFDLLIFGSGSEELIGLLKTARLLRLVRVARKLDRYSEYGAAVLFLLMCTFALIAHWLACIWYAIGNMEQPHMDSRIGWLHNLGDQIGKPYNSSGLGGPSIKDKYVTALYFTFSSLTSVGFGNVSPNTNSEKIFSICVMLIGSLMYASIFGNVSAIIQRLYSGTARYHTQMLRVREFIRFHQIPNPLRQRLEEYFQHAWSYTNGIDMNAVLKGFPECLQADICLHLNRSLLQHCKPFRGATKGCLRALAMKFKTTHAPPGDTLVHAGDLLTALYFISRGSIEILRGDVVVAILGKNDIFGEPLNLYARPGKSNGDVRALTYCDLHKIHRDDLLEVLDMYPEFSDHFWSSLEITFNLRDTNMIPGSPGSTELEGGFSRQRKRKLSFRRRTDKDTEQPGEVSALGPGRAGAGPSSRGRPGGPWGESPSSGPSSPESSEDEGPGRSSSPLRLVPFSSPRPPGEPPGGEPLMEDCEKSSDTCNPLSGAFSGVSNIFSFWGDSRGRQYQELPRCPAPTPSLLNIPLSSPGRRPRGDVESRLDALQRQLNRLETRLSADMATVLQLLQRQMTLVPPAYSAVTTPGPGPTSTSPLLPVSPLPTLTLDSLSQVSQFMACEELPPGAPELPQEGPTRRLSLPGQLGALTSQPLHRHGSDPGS
For `Cc1ncoc1C(=O)N1CCc2c([nH]c3ccccc23)C1C1CCCCC1` (stereo not shown), the “hERG current change (%, negative = inhibition) at 10uM” value turned out to be 1.89%.

Regarding `Cc1ccc(C)c(OCCC(=O)OCC(=O)NCc2ccccc2)c1`, the “hERG current change (%, negative = inhibition) at 10uM” value is 15.4%.

On to `COCCNC(=O)C(c1cccs1)N(CCc1ccccc1)C(=O)Cn1nnc2ccccc21` (stereo not shown), for which the “hERG current change (%, negative = inhibition) at 10uM” value was found to be 6.51%.

`O=C(COc1cc2oc(=O)c3c(c2cc1Cl)CCC3)NCCN1CCOCC1`: the “hERG current change (%, negative = inhibition) at 10uM” value is recorded as 17%.

Turning to `O=C(NCc1ccc(F)cc1)C1CCN(S(=O)(=O)N2CCCC2)CC1`, the “hERG current change (%, negative = inhibition) at 10uM” value stood at 0.41%.

Consider `CN1CCN(C(=O)C(N)Cc2ccccc2)CC1` (stereo not shown), for which the “hERG current change (%, negative = inhibition) at 10uM” value is 23.8%.

As for `Cc1cccc(C)c1NC(=O)c1ccc2c(c1)CCN2S(C)(=O)=O`, the “hERG current change (%, negative = inhibition) at 10uM” value was -8.92%.

On to `O=C(Nc1nnc(Cc2ccccc2)s1)c1ccco1`, for which the “hERG current change (%, negative = inhibition) at 10uM” value is 1.96%.

In the case of `O=C(CN1CCC(n2nnc3ccccc32)CC1)NCc1cccs1`, the “hERG current change (%, negative = inhibition) at 10uM” value was -60.2%.

With `O=C(CCS(=O)(=O)c1ccccc1)Nc1ccc2c(c1)C(=O)NC2=O`, the “hERG current change (%, negative = inhibition) at 10uM” value was 4.57%.

Regarding `Cc1ccc(S(=O)(=O)N2CCCC(C(=O)N3CCCc4ccccc43)C2)cc1` (stereo not shown), the “hERG current change (%, negative = inhibition) at 10uM” value is given as 15.1%.

`COCCN(CC1CCCN(C2Cc3ccccc3C2)C1)C(=O)c1ccc(C(C)=O)cc1` (stereo not shown): the “hERG current change (%, negative = inhibition) at 10uM” value is on record as -78.6%.

As to `C=CCN(c1ccc(C(=O)NCCCn2ccnc2)cc1)S(C)(=O)=O`, the “hERG current change (%, negative = inhibition) at 10uM” value worked out at 12.3%.

As to `CCOc1ncccc1C(=O)Nc1nnc(C2CC2)s1`, the “hERG current change (%, negative = inhibition) at 10uM” value is given as 5.61%.

`COc1cccc(-c2nc(Cc3ccc(OC)c(OC)c3)no2)c1`: the “hERG current change (%, negative = inhibition) at 10uM” value came out at 0.706%.

Consider `CC1=Nc2cc(C(=O)O)ccc2Sc2ccc(C)cc21`, for which the “hERG current change (%, negative = inhibition) at 10uM” value is 53.5%.

With `CN1CCN(c2nc3ccccn3c(=O)c2C=O)CC1.Cl`, the “hERG current change (%, negative = inhibition) at 10uM” value amounted to 16.2%.

Regarding `CC(=O)Nc1ccc(NC(=O)COC(=O)c2c3c(nc4ccccc24)CCN(Cc2ccccc2)C3)cc1`, the “hERG current change (%, negative = inhibition) at 10uM” value is on record as -20%.

Turning to `CCc1ccc(NC(=O)CSCc2nc(N)nc(Nc3ccccc3CC)n2)cc1`, the “hERG current change (%, negative = inhibition) at 10uM” value is given as -4.74%.

As for `CO/N=C/c1c(-c2ccc(Cl)cc2)nc2cc(C)ccn12`, the “hERG current change (%, negative = inhibition) at 10uM” value was determined as 10.4%.

Consider `COc1ccc(/C=C/C(=O)NC(=S)N2C[C@H]3C[C@H](C2)c2cccc(=O)n2C3)cc1`, for which the “hERG current change (%, negative = inhibition) at 10uM” value is on record as -18.2%.

`COc1ccc(OC)c(S(=O)(=O)Nc2ccc(O)c(Sc3ncn[nH]3)c2)c1`: the “hERG current change (%, negative = inhibition) at 10uM” value is -5.38%.

For the compound `O=C(CN1CCN(c2ccccc2)CC1)Nc1nnc(-c2ccccc2)s1`, the “hERG current change (%, negative = inhibition) at 10uM” value was 6.41%.

On to `CC/C(=N\NS(C)(=O)=O)c1ccccc1`, for which the “hERG current change (%, negative = inhibition) at 10uM” value was 14.6%.

Regarding `Cc1ccccc1C(=O)NCc1ccncc1`, the “hERG current change (%, negative = inhibition) at 10uM” value was -7.31%.
